Data reported in article PMC7819943, “Rice protein-binding microarrays: a tool to detect cis-acting elements near promoter regions in rice”.
The other results are listed elsewhere or left out.

target: T1, OsWOX13 (Oryza sativa, UniProt Q5QMM3 1-267); test: protein-binding microarray (RPBM); PBS, 2% BSA, 51.3 ng/ul salmon testes DNA, 50 uM zinc acetate, 200 nM TF, 25 C, 1 h; high values mean tight binding; details: protein: recombinant; tags: N-terminal polyhistidine and DsRed monomer fusion (pET32a); label: CyDye5-dUTP incorporated in the synthesized complementary strand; 3' TTTTT single-stranded linker to array surface; dsDNA, one strand shown
T1 sequence: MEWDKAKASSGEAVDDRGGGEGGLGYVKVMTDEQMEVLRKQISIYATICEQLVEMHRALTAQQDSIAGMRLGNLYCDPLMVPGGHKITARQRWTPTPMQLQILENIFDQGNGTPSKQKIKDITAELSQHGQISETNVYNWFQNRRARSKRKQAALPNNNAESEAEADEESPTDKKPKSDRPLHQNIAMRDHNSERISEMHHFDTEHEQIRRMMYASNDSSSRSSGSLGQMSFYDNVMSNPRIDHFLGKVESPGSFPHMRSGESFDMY
Outline: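 Binding signal here means per-feature fluorescence intensity in arbitrary units. The values were read on an Axon 4000B scanner after a custom Agilent array, double-stranded by primer extension with Cy5-dUTP, was incubated with 200 nM protein at 25 °C for 1 h in PBS with 2% BSA, salmon testes DNA and 50 µM zinc acetate, then washed. The proteins were transcription factors with an N-terminal polyhistidine tag and DsRed, expressed in E. coli BL21-CodonPlus and purified on Ni–NTA.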

First: ATACATTTGCAATTTACTATAAATTTTGAAATATGTCCCTCGGAGTCACCTAGTGCAG
Second: ATCAAAATAAATTGACATATAATATGTCACTCCACCGATACGGAGTCACCTAGTGCAG
The binding signal of the first is lower: 5200 fluorescence intensity (a.u.) for the first, 8080 fluorescence intensity (a.u.) for the second.

Going from “TGAATGATTAAGATTTAAAGATGTCTTTTAGTGGATGGGACGGAGTCACCTAGTGCAG” to “GCTTGACACCGATCCATTTGACGAGCTCGCATTTCCTTCACGGAGTCACCTAGTGCAG”, the binding signal falls from 20200 fluorescence intensity (a.u.) to 3260 fluorescence intensity (a.u.).

First: TGCTGATTGGCGCTCCCCACGTTGGCAAGATTAGGTGATCCGGAGTCACCTAGTGCAG
Second: ACCTATTATGATCGGTTTTGATTAGTTAAGAGATGCCCAGCGGAGTCACCTAGTGCAG
The binding signal of the first is higher: 39100 fluorescence intensity (a.u.) for the first, 8030 fluorescence intensity (a.u.) for the second.

First: CCAAATTAGCCAAATCATCATCGTCATCCGAGACTTGAGCCGGAGTCACCTAGTGCAG
Second: TAGCAATTACATGGAATGTTGAAGTCTTCTATTGCATTGTCGGAGTCACCTAGTGCAG
The binding signal of the first is higher: 38400 fluorescence intensity (a.u.) for the first, 5180 fluorescence intensity (a.u.) for the second.

Compared with “TTCTAGTACCACTAATTTGCAGTCAAGCCTCCTGCCCTCTCGGAGTCACCTAGTGCAG”, “CGCTGATGGAGTCAAATTGCACCGGTTTTAAGAGTTAGGGCGGAGTCACCTAGTGCAG” is higher in binding signal: 5020 fluorescence intensity (a.u.) for the first, 28200 fluorescence intensity (a.u.) for the second.

Going from “AAATTAAATTAAATTAAATCGAACTGAATACTACATGTCGCGGAGTCACCTAGTGCAG” to “GTTGAATGAATATATGATTTGTCACTGATGCTCACTACTACGGAGTCACCTAGTGCAG”, the binding signal falls from 33100 fluorescence intensity (a.u.) to 27600 fluorescence intensity (a.u.).

Going from “CTGAATTAATTATGGCTCGTCCAACCGCGCGTACTGTACTCGGAGTCACCTAGTGCAG” to “ATTATATCCTTAACTGGGCCTGAACTCCAATCAACCCAACCGGAGTCACCTAGTGCAG”, the binding signal falls from 30200 fluorescence intensity (a.u.) to 3320 fluorescence intensity (a.u.).

Going from “GTTAATTACAACATTTCTTTGAGATCAGCTCAAATGGGTCCGGAGTCACCTAGTGCAG” to “GACACCCATCCATCCGCCTCCTGCCTGCGCCGTCGGCCGACGGAGTCACCTAGTGCAG”, the binding signal falls from 28100 fluorescence intensity (a.u.) to 4140 fluorescence intensity (a.u.).

First: CATGGACTAGACTGTGATTAGAAGCTAGAACCGAAATAACCGGAGTCACCTAGTGCAG
Second: ATTATTTAATTTGTTGGATTGTGGCTTCCTTTCCTCTAAACGGAGTCACCTAGTGCAG
The binding signal of the first is lower: 7470 fluorescence intensity (a.u.) for the first, 19100 fluorescence intensity (a.u.) for the second.

First: CTGATCATCAATTTGGTTACTCTGCAGCTCACCGGCATTCCGGAGTCACCTAGTGCAG
Second: TAAATAATTTCCCCATACTCCTCTCACTTGCTGTGCGGCCCGGAGTCACCTAGTGCAG
The binding signal of the first is higher: 8200 fluorescence intensity (a.u.) for the first, 3680 fluorescence intensity (a.u.) for the second.

First: CATAATTATATGGGACAGTAAGGAACAATCCGTTGTTACTCGGAGTCACCTAGTGCAG
Second: GATTAATTAGATTTAATAAATTCATCTCGCAGTTTACAGGCGGAGTCACCTAGTGCAG
The binding signal of the first is lower: 19800 fluorescence intensity (a.u.) for the first, 62200 fluorescence intensity (a.u.) for the second.

First: TGGTCAATAGTTAATTATTCCGATGATCAAATATTACTAGCGGAGTCACCTAGTGCAG
Second: CGTAAATTATAGGGCGAGAAGATCATTGACATGCAAATTCCGGAGTCACCTAGTGCAG
The binding signal of the first is lower: 6140 fluorescence intensity (a.u.) for the first, 11700 fluorescence intensity (a.u.) for the second.

Going from “TAAGCAATTAATTGAATGTGGTTGAAAAGTTTGGCTCTTCCGGAGTCACCTAGTGCAG” to “CATAATTATTTTCATCTGGAATTTTGTAGCAATAAACTGACGGAGTCACCTAGTGCAG”, the binding signal falls from 39500 fluorescence intensity (a.u.) to 18700 fluorescence intensity (a.u.).

Compared with “TTTGATCAAAATCAAAACGTCTTATAACCTGAAACGGAGGCGGAGTCACCTAGTGCAG”, “GTTAATAAGTAATGATCATGATTGATGGCGTAGATAGCTACGGAGTCACCTAGTGCAG” is higher in binding signal: 4210 fluorescence intensity (a.u.) for the first, 42900 fluorescence intensity (a.u.) for the second.

First: ATACTACCTTCAATTATATTAATAGATAATGCCGTTGTCACGGAGTCACCTAGTGCAG
Second: CCAATCACATTCACTTTTACAGTTTAGCCCCACCCTCTCCCGGAGTCACCTAGTGCAG
The binding signal of the first is higher: 11700 fluorescence intensity (a.u.) for the first, 4980 fluorescence intensity (a.u.) for the second.

First: TGTGATTGTGTGAGAACTATCTATTTGATCTTACATTGTTCGGAGTCACCTAGTGCAG
Second: TTTATTATTTTATCGGATCTAATTACCACGTAAGCGTCACCGGAGTCACCTAGTGCAG
The binding signal of the first is higher: 21800 fluorescence intensity (a.u.) for the first, 3940 fluorescence intensity (a.u.) for the second.

First: CGTTAAAATTGAAAGTTTGATTGAAATTGGAACGATGTGACGGAGTCACCTAGTGCAG
Second: AGTAATCAGCACTCAATTTACCATCATTCAGAGAGGACAACGGAGTCACCTAGTGCAG
The binding signal of the first is higher: 40200 fluorescence intensity (a.u.) for the first, 11700 fluorescence intensity (a.u.) for the second.

Compared with “TGTAAGAGTGGCAAATAGTTAATTAGTCTAAATTTTGCACCGGAGTCACCTAGTGCAG”, “ACTTTTAGGTACCTAATTATGTTTAGTACTAATTAGCCGCCGGAGTCACCTAGTGCAG” is lower in binding signal: 4770 fluorescence intensity (a.u.) for the first, 3900 fluorescence intensity (a.u.) for the second.

First: TAGTTCAATCAATTGAAGTCGAGCGGCTTCAGATATTCGTCGGAGTCACCTAGTGCAG
Second: TAAAACATAAATTTACCATTGACCTACAATTTGAAAACCTCGGAGTCACCTAGTGCAG
The binding signal of the first is higher: 25300 fluorescence intensity (a.u.) for the first, 6720 fluorescence intensity (a.u.) for the second.

First: ATACTTAACTGTCTCTGTAGCAACACGCTCGATATCATCTCGGAGTCACCTAGTGCAG
Second: GTGATCGTCTCCCTTAATTAGCTTCCACTAATCTTTCCACCGGAGTCACCTAGTGCAG
The binding signal of the first is lower: 3500 fluorescence intensity (a.u.) for the first, 8410 fluorescence intensity (a.u.) for the second.

Compared with “TGTCTAATTGTCTCACGTTCAATTGTTGCCAACTTGCAACCGGAGTCACCTAGTGCAG”, “GTCACCAATCACGACTTCCCATGCACATCGTCCAACCCAGCGGAGTCACCTAGTGCAG” is higher in binding signal: 16600 fluorescence intensity (a.u.) for the first, 18900 fluorescence intensity (a.u.) for the second.
